# PubChem BioAssay (NCATS)
# Several values for one entry are separate records, joined by “and”; a condition that tells them apart may be missing. Equal entries are not always repeated. The inconclusive results got no clear call from the source; some entries with a clear call stand among them for comparison. For part of these data: Potencies of inconclusive entries are doubtful fits and often do not repeat. Activity calls are given as the source filed them. Unless noted, calls follow the shape of the dose curve; as a rule, active = well fitted curve in the direction sought with a large enough effect; inconclusive = small, poorly fitted or top-dose-only effect, or another doubt; inactive = no such curve, though single readings can be large; an effect the other way counts as inactive or inconclusive.
# Experiments:
# [1] = AP1 Signaling Pathway (AID 357; active = well fitted curve in either direction with a large enough effect, not every such curve was filed as active; inconclusive = small, poorly fitted or top-dose-only effect, or another doubt; also: top concentration of the series differs between compounds; % is scaled to controls: 0 for no effect and ±100 for the full control effect); details: ME-180 AP-1-bla reporter, EGF-induced, beta-lactamase ratio, 5 h
# How it was run: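 ME-180 cells with beta-lactamase reporter under AP-1 response element, stimulated with EC50 EGF; compounds tested in titration series, 5 h at 37 °C. CCF4 substrate added 2.5 h at room temperature; 460/530 nm emission ratio gave %activity and AC50.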
# [2] = NFAT Signaling Pathway (AID 444; active = well fitted curve in either direction with a large enough effect, not every such curve was filed as active; inconclusive = small, poorly fitted or top-dose-only effect, or another doubt;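 also: carbachol stimulus at about its EC50 of 1 µM final; % is scaled to controls: 0 for no effect and ±100 for the full control effect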); details: Jurkat NFAT-bla M1, carbachol, beta-lactamase ratio, 5 h; at 38 µM (top of the series)
# How it was run: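 Read-out: CCF4 FRET ratio (460 nm/530 nm) after 1 h RT dye loading, used for %activity and AC50 from titration series. Cells: Jurkat NFAT-β-lactamase/M1 line, treated with compound plus 1 uM carbachol for 5 h, 37 °C.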
# [3] = target: Mitogen-activated protein kinase 10 (Mus musculus) (UniProt Q61831); assay: JNK3 AlphaScreen Assay (AID 530; active = well fitted curve in either direction with a large enough effect, not every such curve was filed as active; inconclusive = small, poorly fitted or top-dose-only effect, or another doubt;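 also: kinase came from lysate of stimulated human HepG2 cells; signal reports phosphorylation of biotinylated GST-cJun 1-79 at Ser73 with 10 µM ATP; potency is read from the fitted curve at half-maximal effect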); details: JNK3 lysate, c-Jun phosphorylation; activity change, negative = inhibition: at 57.1 µM (top of the series)
# How it was run: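 Kinase buffer: 20 mM Tris-HCl pH 7.6, 10 mM MgCl2, 1 mM DTT, 0.1 mM Na3VO4, 0.01% Tween-20; ATP 10 uM. Substrate biotin-GST-cJun(1-79), enzyme from activated HepG2 lysates. Detection by Ser73 phospho-antibody AlphaScreen.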
# [4] = qHTS Assay for Identification of Small Molecule Antagonists for NFkB Signaling Pathway (AID 895; active = well fitted inhibition curve with a large enough effect in the signal ratio, with a control signal flat, not every such curve was filed as active; inconclusive = small, poorly fitted or top-dose-only effect, or effect the other way, or a change in a side signal; the % refers to the signal ratio; also: % is scaled to controls: 0 for no effect and ±100 for the full control effect); details: NFkB beta-lactamase reporter cells, FRET ratio 460/530, stimulated with 10 pM TNF alpha; activity change, negative = inhibition: at 38.3 µM (top of the series)
# How it was run: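 Beta-lactamase reporter read-out (460 and 530 nm emission ratio, 405 nm excitation, 2 hrs substrate loading RT) after 5 hr stimulation with 10 pM TNF alpha in compound-treated NFkB-bla ME-180 cells in low-serum medium.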
# [5] = qHTS Assay for Identification of Small Molecule Antagonists for Thrombopoietin (TPO) Signaling Pathway (AID 918); details: TPO-dependent cell signaling reporter, antagonist mode; activity change, negative = inhibition: at 38.5 µM (top of the series); also: nearly all actives have a fitted effect of over 60% in size
# How it was run: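 Antagonist mode at EC50 TPO (26 pM) in IL-3-free medium; murine Ba/F3 cells with human TPO receptor and GPIIb-promoter luciferase, 24 hrs at 37 C before luminescent detection.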
# [6] = target: Muscarinic acetylcholine receptor M1 (Rattus norvegicus) (UniProt P08482); assay: qHTS Assay for Antagonists of Acetylcholine Muscarinic M1 Receptor: Kinetic Measurement of Intracellular Calcium Response (AID 943); also: potency is read from the fitted curve at half-maximal effect; nearly all actives have a fitted effect of over 75% in size
# Chain of UniProt P08482 (P08482 whole entry, looked up): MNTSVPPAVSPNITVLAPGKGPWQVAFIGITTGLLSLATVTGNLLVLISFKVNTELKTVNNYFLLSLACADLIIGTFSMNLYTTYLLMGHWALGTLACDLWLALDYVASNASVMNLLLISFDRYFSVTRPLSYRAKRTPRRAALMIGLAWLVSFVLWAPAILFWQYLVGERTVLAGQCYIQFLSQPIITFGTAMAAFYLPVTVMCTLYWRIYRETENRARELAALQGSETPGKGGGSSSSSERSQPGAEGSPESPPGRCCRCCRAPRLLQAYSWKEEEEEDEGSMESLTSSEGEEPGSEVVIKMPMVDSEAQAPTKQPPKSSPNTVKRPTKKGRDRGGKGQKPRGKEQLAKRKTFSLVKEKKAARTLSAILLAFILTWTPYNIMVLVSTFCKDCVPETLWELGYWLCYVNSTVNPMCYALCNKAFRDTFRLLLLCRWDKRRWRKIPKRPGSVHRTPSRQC
# How it was run: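 Quantitative HTS in CHO-M1 (rat receptor) cells: 10 min compound exposure ahead of 100 nM carbachol, Fluo-4 fluorescence followed 4 min, value expressed as peak-to-basal ratio.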
# [7] = target: Muscarinic acetylcholine receptor M1 (Rattus norvegicus) (UniProt P08482); assay: qHTS Assay for Antagonists of Acetylcholine Muscarinic M1 Receptor: Measurement of IP-One Response (AID 944); also: potency is read from the fitted curve at half-maximal effect; nearly all actives have a fitted effect of over 75% in size
# [8] = qHTS Assay for Lipid Storage Modulators (AID 1519; calls by dose curve; also: % is scaled to controls: 0 for no effect and ±100 for the full control effect); details: Drosophila S3 cells, BODIPY lipid droplet/cell ratio, laser cytometry, cells loaded with oleic acid; activity change, negative = inhibition: at 57.5 µM (top of the series) unless noted
# How it was run: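 Cells seeded at 5,000 per well were treated with compounds over a concentration series and loaded with oleic acid (400 uM, as added). Lipid droplet fluorescence (488 nm excitation, 500-530 nm channel) was read by laser-scanning cytometry and normalized to 20 uM Triacsin C.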
# [9] = qHTS for differential inhibitors of proliferation of Plasmodium falciparum line GB4 (AID 1816); details: Potency: Plasmodium falciparum GB4 proliferation inhibition;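 also: potency is read from the fitted curve at half-maximal effect; parasite growth measured after 72 h incubation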
# [10] = qHTS for differential inhibitors of proliferation of Plasmodium falciparum line D10 (AID 1877);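 also: potency is read from the fitted curve at half-maximal effect; parasites grown with compound for 72 h before DNA staining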
# [11] = qHTS for differential inhibitors of proliferation of Plasmodium falciparum line W2 (AID 1883); details: Potency: Plasmodium falciparum W2 proliferation inhibition;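 also: potency is read from the fitted curve at half-maximal effect; parasites grown with compound for 72 h before lysis and staining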
# [12] = qHTS for differential inhibitors of proliferation of Plasmodium falciparum line HB3 (AID 1886); details: Potency: Plasmodium falciparum HB3 proliferation inhibition;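 also: potency is read from the fitted curve at half-maximal effect; parasites grown with compound for 72 h before SYBR Green readout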
# [13] = target: RecQ-like DNA helicase BLM (Homo sapiens) (UniProt P54132); assay: qHTS Validation Assay for Inhibitors of Bloom's syndrome helicase (BLM) (AID 2364); also: potency is read from the fitted curve at half-maximal effect
# Chain of UniProt P54132 (P54132 whole entry, looked up): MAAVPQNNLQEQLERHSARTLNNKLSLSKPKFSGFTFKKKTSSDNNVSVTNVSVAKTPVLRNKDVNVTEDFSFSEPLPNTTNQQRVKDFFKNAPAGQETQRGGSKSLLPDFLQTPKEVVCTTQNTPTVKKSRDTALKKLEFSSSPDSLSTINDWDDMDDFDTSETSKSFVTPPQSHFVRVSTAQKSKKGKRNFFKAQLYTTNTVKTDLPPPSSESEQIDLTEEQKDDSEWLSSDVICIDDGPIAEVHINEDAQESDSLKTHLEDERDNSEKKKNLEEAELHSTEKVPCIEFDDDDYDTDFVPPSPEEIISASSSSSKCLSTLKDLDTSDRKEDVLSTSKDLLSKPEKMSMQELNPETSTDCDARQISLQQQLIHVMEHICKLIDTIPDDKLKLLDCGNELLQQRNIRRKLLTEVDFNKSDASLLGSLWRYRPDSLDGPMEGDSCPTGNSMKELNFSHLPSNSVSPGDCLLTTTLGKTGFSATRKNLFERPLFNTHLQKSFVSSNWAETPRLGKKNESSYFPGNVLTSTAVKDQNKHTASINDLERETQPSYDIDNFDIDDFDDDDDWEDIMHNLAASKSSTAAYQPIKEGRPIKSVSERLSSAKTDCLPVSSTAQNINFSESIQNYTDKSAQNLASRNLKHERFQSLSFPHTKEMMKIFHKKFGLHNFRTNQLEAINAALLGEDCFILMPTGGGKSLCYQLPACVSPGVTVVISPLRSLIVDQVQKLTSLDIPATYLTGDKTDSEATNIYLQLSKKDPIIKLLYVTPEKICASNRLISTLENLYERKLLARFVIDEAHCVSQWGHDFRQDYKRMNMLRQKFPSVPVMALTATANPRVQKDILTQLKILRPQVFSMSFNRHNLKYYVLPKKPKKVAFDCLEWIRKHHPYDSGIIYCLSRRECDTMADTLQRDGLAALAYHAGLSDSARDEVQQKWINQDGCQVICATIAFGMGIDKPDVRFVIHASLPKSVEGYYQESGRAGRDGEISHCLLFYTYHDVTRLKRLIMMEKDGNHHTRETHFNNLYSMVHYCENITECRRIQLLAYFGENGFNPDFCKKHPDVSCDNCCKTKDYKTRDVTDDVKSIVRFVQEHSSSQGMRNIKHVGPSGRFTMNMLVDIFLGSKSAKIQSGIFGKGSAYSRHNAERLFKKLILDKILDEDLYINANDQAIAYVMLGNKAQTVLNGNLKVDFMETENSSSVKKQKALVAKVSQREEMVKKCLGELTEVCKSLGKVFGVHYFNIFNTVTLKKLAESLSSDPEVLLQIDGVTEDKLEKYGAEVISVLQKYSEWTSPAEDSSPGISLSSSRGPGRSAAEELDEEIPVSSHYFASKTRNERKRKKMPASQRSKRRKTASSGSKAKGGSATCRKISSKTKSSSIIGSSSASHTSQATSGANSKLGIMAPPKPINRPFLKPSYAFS
# How it was run: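 Forked 20-bp duplex substrate (200 nM, TAMRA/BHQ-2) plus 2 mM ATP added after 15 min compound preincubation with 50 nM enzyme, pH 8.0, poly(dI-dC) 2.5 ug/ml. Strand separation followed by fluorescence (525/598 nm) over 2 h, normalized to enzyme-free and DMSO controls.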
# [14] = target: ATP-dependent 6-phosphofructokinase (Trypanosoma brucei brucei) (UniProt O15648); assay: qHTS Validation Assay to Find Inhibitors of T. brucei phosphofructokinase (AID 485368); details: activity change, negative = inhibition: at 57.5 µM (top of the series); also: potency is read from the fitted curve at half-maximal effect
# Chain of UniProt O15648 (O15648 whole entry, looked up): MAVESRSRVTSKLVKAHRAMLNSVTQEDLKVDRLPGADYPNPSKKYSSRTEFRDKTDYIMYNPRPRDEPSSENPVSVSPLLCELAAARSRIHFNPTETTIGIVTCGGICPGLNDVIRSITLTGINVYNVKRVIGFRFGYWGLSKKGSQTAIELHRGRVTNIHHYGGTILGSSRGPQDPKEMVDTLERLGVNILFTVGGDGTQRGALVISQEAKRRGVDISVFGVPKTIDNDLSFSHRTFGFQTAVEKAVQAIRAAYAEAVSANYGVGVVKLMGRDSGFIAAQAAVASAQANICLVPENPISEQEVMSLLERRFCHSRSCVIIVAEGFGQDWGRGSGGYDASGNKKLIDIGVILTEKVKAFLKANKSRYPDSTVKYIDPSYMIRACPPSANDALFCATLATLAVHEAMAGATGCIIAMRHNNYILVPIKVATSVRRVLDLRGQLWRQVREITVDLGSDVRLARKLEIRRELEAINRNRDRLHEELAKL
# How it was run: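 Inhibition derived from concentration-response curves of luminescence, ranked by r2, response size and curve class; the underlying reaction used 1.25 nM PFK, 0.1 mM ATP and 0.5 mM F6P, 45 min, room temperature.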
# [15] = Quantitative high throughput screen for delayed death inhibitors of the malarial parasite plastid, 96 hour incubation (AID 488745); also: potency is read from the fitted curve at half-maximal effect; nearly all actives have a fitted effect of over 70% in size
# How it was run: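 Two-generation (96 h) exposure of luciferase-reporter P. falciparum in erythrocytes, 2% hematocrit, 0.1% parasitemia final, 37 C, 5% CO2, RPMI 1640 with 0.5% Albumax. Growth inhibition scored by reduced luminescence.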
# [16] = target: Thioredoxin reductase 1, cytoplasmic (Rattus norvegicus) (UniProt O89049); assay: qHTS Assay for Inhibitors of Mammalian Selenoprotein Thioredoxin Reductase 1 (TrxR1) (AID 488773); details: Potency: inhibition; also: potency is read from the fitted curve at half-maximal effect; nearly all actives have a fitted effect of over 40% in size
# Chain of UniProt O89049 (O89049 whole entry, looked up): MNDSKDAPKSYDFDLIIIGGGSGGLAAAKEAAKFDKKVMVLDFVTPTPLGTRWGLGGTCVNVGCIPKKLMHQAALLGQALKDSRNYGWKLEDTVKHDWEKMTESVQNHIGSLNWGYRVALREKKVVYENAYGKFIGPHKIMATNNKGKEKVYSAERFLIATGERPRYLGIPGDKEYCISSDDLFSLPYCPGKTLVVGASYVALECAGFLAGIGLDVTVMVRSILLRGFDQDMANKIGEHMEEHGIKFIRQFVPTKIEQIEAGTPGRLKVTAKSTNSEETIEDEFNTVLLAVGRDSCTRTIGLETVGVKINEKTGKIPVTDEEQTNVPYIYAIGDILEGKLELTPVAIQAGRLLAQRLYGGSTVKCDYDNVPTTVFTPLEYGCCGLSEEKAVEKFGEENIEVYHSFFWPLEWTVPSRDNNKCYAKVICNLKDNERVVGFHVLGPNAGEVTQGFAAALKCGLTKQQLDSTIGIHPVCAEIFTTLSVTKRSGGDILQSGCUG
# How it was run: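 Inhibition is scored from the loss of NADPH fluorescence between first and last reads of an 8-min kinetic run. Selenite (400 uM) was the substrate, added after 15 min compound preincubation at room temperature.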
# [17] = Validation screen for small molecules that induce genotoxicity in human embryonic kidney (HEK293T) cells expressing luciferase-tagged ELG1 (AID 493106); also: 0% is about no effect
# How it was run: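 In this validation screen, increased ELG1-luciferase signal flags compounds causing genetic stress. HEK293T reporter cells are treated 16 hr (37 °C, 5% CO2), developed with ONE-Glo for 30 min at room temperature, and imaged on a CCD-based reader.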
# [18] = qHTS for Inhibitors of ATXN expression: Validation (AID 588378); also: % is scaled to controls: 0 for no effect and ±100 for the full control effect; nearly all actives have a fitted effect of over 75% in size
# How it was run: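 HEK293 cells carrying ATXN2-firefly luciferase reporter, treated with compound 24 h at 37 °C. Viability read first by CellTiter-Fluor (405/525 nm), then reporter expression by Bright-Glo luminescence; controls were a known ATXN2 expression inhibitor and a luciferase inhibitor.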
# [19] = S16 Schwann cell PMP22 intronic element firefly luciferase assay (AID 624032); also: nearly all actives have a fitted effect of over 30% in size; also: potency is read from the fitted curve at half-maximal effect;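 as to activity change, negative = inhibition: plate controls were DMSO for no effect and PTC124 positive control mean for full effect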
# How it was run: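 Luciferase reporter of PMP22 intronic-element expression in stably transfected S16 rat Schwann cells, read by ONE-Glo luminescence after 24 h compound exposure at 37 C. Activity scaled between DMSO (0%) and positive-control PTC124; concentration-effect curves quality-classified.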
# [20] = qHTS of pediatric cancer cell lines to identify multiple opportunities for drug repurposing: Primary screen for SK-N-MC cells (AID 1347093); details: SK-N-MC viability, CellTiter-Glo luminescence, 48 h; activity change, negative = cytotoxic: at 46 µM (top of the series); also: potency is read from the fitted curve at half-maximal effect
# How it was run: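 Metabolically active cells were quantified by ATP-dependent luminescence (CellTiter-Glo, 15 min at room temperature) following 48 h treatment. Cells had been plated at 500-1,000 per well and settled for 5 h beforehand.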
# Tags tell the direction and shape of the fitted curve.
structure (smiles),measurement,setting,value
COc1ccccc1N1CCN(CCCNc2cc(=O)n(C)c(=O)n2C)CC1,"activity change, negative = inhibition",[1]; at 17.2 µM (top of the series),inactive: 5.36%
same,"activity change, negative = inhibition",[1]; at 38 µM (top of the series),inactive: 12.8%
same,"activity change, negative = inhibition",[2],inconclusive: -34.6% [inhibitor]
same,Potency,[3],"inconclusive: 0.0251 µM [activator, full curve, poor fit]"
same,"activity change, negative = inhibition",[4],inconclusive: 13.9%
same,"activity change, negative = inhibition",[5],inconclusive: -7.12% [phenotype inactive]
same,Potency,[6],"inconclusive: 14.1 µM [inhibitor, partial curve, poor fit]"
same,Potency,[7],"inconclusive: 15.8 µM [inhibitor, partial curve, poor fit]"
same,"activity change, negative = inhibition",[8],inconclusive: 13.7%
same,Potency,[9],"inconclusive: 14.1 µM [inhibitor, partial curve, poor fit]"
same,Potency,[10],"inconclusive: 12.6 µM [inhibitor, single point]"
same,Potency,[11],active: 10 µM
same,Potency,[12],"inconclusive: 7.94 µM [inhibitor, partial curve]"
same,Potency,[13],"inconclusive: 0.0126 µM [inhibitor, full curve, poor fit]"
same,Potency,[14],"inconclusive: 37.9 µM [activator, single point]"
same,Potency,[15],"inconclusive: 11.7 µM [inhibitor, single point]"
same,Potency,[16],"inconclusive: 37.7 µM [inhibitor, single point]"
same,Potency,[17],inactive
same,Potency,[18],inactive
same,Potency,[19],"inactive and inconclusive: 4.55 µM [inhibitor, partial curve, poor fit]"
same,Potency,[20],"inconclusive: 23.7 µM [cytotoxic, partial curve, poor fit]"
